Data set [1] can be described thus: Non-GLP single-dose range-finding intravenous toxicity study in rats. Type of data set: in vivo.
Data set [2] deals with orthotopic KPC models. Briefly: Orthotopic KPC models, tumor growth and survival.
A short description of data set [3]: Once weekly intravenous injection toxicity study in Sprague Dawley rats. Type of data set: in vivo. Particulars: IV once weekly for a total of 5 doses, 100 and 300 mg/kg. How it is done: The objective of this study was to evaluate potential toxicity of G9.2-17, an IgG4 human monoclonal antibody directed against galectin-9 at different doses, when administered by intravenous injection to Sprague Dawley Rats once weekly for 4 consecutive weeks followed by a 3-week post dose recovery period. In addition, the toxicokinetic characteristics of G9.2-17 were determined.
One hundred eighty-six animals (Sprague Dawley rats) were assigned to treatment groups randomly by body weight. Control Article/Vehicle, Formulation Buffer for Test Article, and test article, G9.2-17, were administered via a single IV injection in a tail vein at dose levels of 0, 100, and 300 mg/kg once on Days 1, 8, 15, 22, and 29. […]
Clinical observations were performed once daily prior to room cleaning in the morning, beginning on the second day of acclimation. […] The average gram (g)/animal/day was calculated from the weekly food consumption. […] Functional Observation Battery (FOB) observations were recorded for SSB animals approximately 24 hours post dose administrations on Days 1, 35 and 49. […]
Parameters assessed during the In-life examinations of the study included clinical observations, food consumption, body weights, functional observational battery. […] At each necropsy, gross observations and organ weights were recorded, and tissues were collected for microscopic examination.

Data set [4] in a line: Once weekly intravenous infusion toxicity study for 5 weeks in cynomolgus monkeys. Type of data set: in vivo. Particulars: once weekly IV infusion of 100 and 300 mg/kg for 5 weeks. How it is done: Males and females were randomized separately.
Electrocardiographic examinations were performed on all animals.
(§1) Bone marrow smears were collected and preserved.
Soluble galectin-9 was evaluated as follows.
Soluble galectin-9 samples were processed as follows.

Data set [5] relates to M2 macrophages. Kind of data set: Inhibition of polarization and repolarization of M2 macrophages (TGF-beta1, IL-10 secretion). Type of data set: cell-based, human. The conditions noted are these: G9.2-17 20 μg/ml. An excerpt: Whole blood from three healthy human donors was used to isolate CD14+ monocytes. The monocytes were allowed to differentiate to macrophages in X-VIVO-15 media (Lonza) in a 10 cm tissue culture dish for 7 days. The differentiated macrophages were either used directly for assessing inhibition of polarization, or they were cryopreserved and used at a later time for repolarization assays. Prior to use in an assay, the M0 macrophages were phenotyped.
Two different polarization cocktails were used to evaluate macrophage polarization: one with a mixture of IL-4 and IL-13, and a second containing only gal-9. The effect of G9.2-17 on M2 polarization was tested via its direct addition to one of these cocktails, and incubation with macrophages for 48 hours. The effect of G9.2-17 on repolarization of M2 macrophages was tested via addition to the M2-polarized macrophages.
The state of polarization was identified by the measurement of secretion of either IL-10 (repolarization) or TGF-beta1 (inhibition of polarization and repolarization). These factors were quantified in cell culture supernatants using CytoMetric Bead Arrays following the manufacturer's protocol.

Data set [6] can be described thus: Non-GLP single-dose range-finding intravenous infusion toxicity study in cynomolgus monkeys. Type of data set: in vivo.
Text: The animals were placed in sling restraints during dosing.
as §1
Formalin was infused into the lung via the trachea.
Paired organs were weighed together.

Entries after “also recorded” stand apart in the source; their conditions may differ.

B1: G9.2-17: anti-Galectin-9 fully human antibody, VH SEQ ID NO:7, VL SEQ ID NO:8; used as IgG4 (heavy chain SEQ ID NO:19, light chain SEQ ID NO:15) (antibody)
heavy: EVQLVESGGGLVQPGGSLRLSCAASGFTVSSSSIHWVRQAPGKGLEWVAYISSSSGYTYYADSVKGRFTISADTSKNTAYLQMNSLRAEDTAVYYCARYWSYPSWWPYRGMDYWGQGTLVTVSSASTKGPSVFPLAPCSRSTSESTAALGCLVKDYFPEPVTVSWNSGALTSGVHTFPAVLQSSGLYSLSSVVTVPSSSLGTKTYTCNVDHKPSNTKVDKRV[sequence of human IgG4 Fc with S228P L445P (EU numbers) not given]
light: DIQMTQSPSSLSASVGDRVTITCRASQSVSSAVAWYQQKPGKAPKLLIYSASSLYSGVPSRFSGSRSGTDFTLTISSLQPEDFATYYCQQSSTDPITFGQGTKVEIKRTVAAPSVFIFPPSDEQLKSGTASVVCLLNNFYPREAKVQWKVDNALQSGNSQESVTEQDSKDSTYSLSSTLTLSKADYEKHKVYACEVTHQGLSSPVTKSFNRGEC
For the molecule B1, the tolerability entry in data set [1] (single intravenous administration of 10, 30, and 70 mg/kg) is recorded as “tolerated with no adverse findings”; in data set [3] it was “generally well tolerated”; in data set [4] it was “tolerated with no adverse findings”; in data set [6] (single intravenous infusion of 30, 100, and 200 mg/kg), “tolerated with no adverse findings”. Also, the NOEL in data set [1] (single intravenous bolus, male rats, 10, 30, 70 mg/kg) worked out at 70 mg/kg. Further, in data set [2] (KPC animals), the “extended the survival of KPC animals” value is listed as “more than double”. In data set [2] (orthotopic KPC models), the “halts pancreatic tumor growth” value is given as 50%. Besides, the TGF-beta1 secretion result in data set [5] (donor macrophages with IL-4/IL-13 or gal-9 polarization cocktail, vs isotype control or untreated) is listed as “abolished the IL-4/IL-13-dependent increase of TGF-β1 secretion; also recorded: potently inhibit”. Moreover, the IL-10 secretion entry in data set [5] (repolarization of cryopreserved macrophages, IL-4/IL-13 or Gal-9 cocktail, vs untreated and IgG4 isotype) is “reduction of secreted IL-10; also recorded: potently inhibit”. Besides, the “No-observed-Adverse-Effect-Level (NOAEL)” value in data set [6] (single 30-minute IV infusion, 30, 100, 200 mg/kg, highest dose level evaluated) is 200 mg/kg.

Values taken from US20240043543A1, “ANTI-GALECTIN-9 ANTIBODIES AND THERAPEUTIC USES THEREOF” (New York University, priority 2020, published 2024).
